Source: PubChem BioAssay AID602310 (National Center for Advancing Translational Sciences (NCATS), 2012)
In all, about 410,000 compounds went through this assay and about 310 (0.076%) were called active. This list was built around the results that the source calls inconclusive (neither active nor inactive); the mix of calls is not that of the screen. Calls follow the shape of the dose curve; as a rule, active = well fitted curve in the direction sought with a large enough effect; inconclusive = small, poorly fitted or top-dose-only effect; inactive = flat fitted curve, though single readings scatter. Where the call is inconclusive, the potency comes from a doubtful curve fit.

Molecular target: DNA dC->dU-editing enzyme APOBEC-3G (Homo sapiens) (UniProt Q9HC16)
Chain of UniProt Q9HC16 (Q9HC16 whole entry, looked up): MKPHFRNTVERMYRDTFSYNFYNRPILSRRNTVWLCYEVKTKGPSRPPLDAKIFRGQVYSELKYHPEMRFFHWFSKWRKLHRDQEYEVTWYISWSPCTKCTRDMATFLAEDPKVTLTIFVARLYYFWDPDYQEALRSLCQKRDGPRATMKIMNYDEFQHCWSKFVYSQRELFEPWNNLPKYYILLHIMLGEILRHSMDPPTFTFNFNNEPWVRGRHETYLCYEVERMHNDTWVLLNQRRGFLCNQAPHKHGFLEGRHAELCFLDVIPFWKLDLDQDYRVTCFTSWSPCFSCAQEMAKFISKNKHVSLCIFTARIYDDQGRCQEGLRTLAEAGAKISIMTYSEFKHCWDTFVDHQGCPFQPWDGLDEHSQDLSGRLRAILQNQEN
Assay: qHTS for Inhibitors of Vif-A3G Interactions: qHTS; also: nearly all actives have a fitted effect of over 60% in size
Settings: HeLa A3G-eYFP + Vif (tagged APOBEC3G with the HIV-1 protein that degrades it), YFP fluorescence, overnight; series mostly up to 46.1 µM
Summary of the method: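 HeLa cells stably expressing Vif and C-terminally eYFP-tagged A3G, seeded overnight at 37 deg C, then exposed to compound by pintool overnight at 37 deg C. Rise in yellow fluorescence (Ex 488/Em 500-530, Acumen) marks blocked Vif-driven A3G degradation.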
Potency is read from the fitted curve at half-maximal effect; tags tell the direction and shape of the fitted curve.

| SMILES | Potency |
| --- | --- |
| COc1ccc2ccccc2c1/C=N/NC(=O)c1sc(N)c(C#N)c1C | inconclusive: 35.5 µM [inhibitor, single point] |
| CCOC(=O)c1c(-c2ccc(C)o2)csc1NC(=O)CSc1nncs1 | inactive |
| COc1ccc(NC(=O)c2cccc(-n3c(C)ccc3C)c2)c(OC)c1 | inconclusive: 35.5 µM [inhibitor, single point] |
| Cc1ccc(S(=O)(=O)c2nc(S(=O)(=O)c3ccc(C)cc3)c(N3CCN(CCO)CC3)s2)cc1 | inconclusive: 35.5 µM [inhibitor, single point] |
| CC(=O)c1ccc(NC(=O)Nc2ccncc2)cc1 | inconclusive: 11.2 µM [inhibitor, partial curve, poor fit] |
| COc1cccc(/C=C2\SC(=S)N(CCC(=O)N3CCCCC3CCO)C2=O)c1 (configuration not stated) | inactive |
| COc1ccc(Nc2nnc(-c3ccc(O)cc3)c3ccccc23)cc1 | inconclusive: 22.4 µM [inhibitor, partial curve, poor fit] |
| CN(Cc1nccs1)C(=O)CC1C(=O)NCCN1Cc1ccc(-c2ccccc2)cc1 (configuration not stated) | inactive |
| COc1ccc(OC)c(-c2nnc3n2N=C(c2ccc(OC)c(OC4CCCC4)c2)CS3)c1 | inconclusive: 1.41 µM [inhibitor, partial curve, poor fit] |
| C=C1C(=O)[C@]23C[C@H]1CC[C@H]2[C@]1(C)[C@@H](O)CC[C@@](C)(C(=O)O)[C@H]1C[C@@H]3O | inconclusive: 7.94 µM [inhibitor, partial curve, poor fit] |
| COCCN(C(=O)CSc1nc2ccccc2s1)c1c(N)n(Cc2ccccc2)c(=O)[nH]c1=O | inconclusive: 31.6 µM [inhibitor, single point] |
| Oc1[nH]c2ccccc2c1N=Nc1ccccc1 | inconclusive: 35.5 µM [inhibitor, single point] |
| CCC1=Nc2cc(C(=O)NC3CCC(C)CC3)ccc2Sc2ccc(C)cc21 (configuration not stated) | inconclusive: 0.631 µM [inhibitor, full curve, poor fit] |
| O=C(Nc1cccc(Cl)c1)Nc1cc(S(=O)(=O)N2CCOCC2)ccc1N1CCCC1 | inactive |
| COc1ccc(-c2ccc3c(c2)S(=O)(=O)c2cccc(C(=O)NCCOc4ccccc4)c2C3=O)cc1OC | active: 11.2 µM |
| NC(=O)N/N=C/c1sc(N2CCCCC2)nc1-c1cccs1 | inconclusive: 22.4 µM [inhibitor, single point] |
| CC1CC(C)CN(S(=O)(=O)c2ccc(NC(=O)c3ccc(=O)[nH]c3)cc2)C1 (configuration not stated) | inconclusive: 3.16 µM [inhibitor, full curve] |
| Cc1cc(C)c(S(=O)(=O)Nc2ccc3c4c(cccc24)CC3)c(C)c1 | inconclusive: 0.562 µM [inhibitor, full curve, poor fit] |
| CC(=O)c1c(C)oc2c1cc(NS(=O)(=O)c1ccc(Br)cc1)c1ccccc12 | inconclusive: 1 µM [inhibitor, full curve, poor fit] |
| N#Cc1c(-c2ccc(Cl)cc2)c(-c2ccc(Cl)cc2)nn(CCOC(=O)CCC(=O)O)c1=O | inconclusive: 1.58 µM [inhibitor, full curve, poor fit] |
| COc1ccc(CN(C)C(=O)CNC(=O)Cc2cccc3ccccc23)c(OC)c1OC | inactive |

| SMILES | Potency |
| --- | --- |
| CN(C)Cc1ccccc1C(O)(c1ccccc1)c1ccccc1 | inactive |
| C/C(=N\NC(=O)c1cc(-c2cccc([N+](=O)[O-])c2)n[nH]1)c1ccccc1O | inconclusive: 35.5 µM [inhibitor, single point] |
| COC(=O)c1cc(=O)n(-c2ccccc2)c(=Nc2ccccc2)s1 | inconclusive: 35.5 µM [inhibitor, single point] |
| CCC(c1nnc(SCC(=O)Nc2cc(C)on2)o1)N(C)C (configuration not stated) | inactive |
| Cc1ccc2oc(Nc3nc(C)c(C)c(C)n3)nc2c1 | inactive |
| C=COCCCNc1ncnc2sc(-c3ccccc3)cc12 | inactive |
| CN1CCc2c(sc(NC(=O)CSc3ccccc3)c2-c2nc3ccccc3s2)C1 | inconclusive: 3.16 µM [inhibitor, partial curve, poor fit] |
| O=C1NC[C@H](Cc2ccccc2)N(C[C@@H]2CCCN2C[C@H](Cc2ccccc2)N2C[C@H](Cc3ccccc3)N(CCc3ccccc3)C(=O)C2=O)C1=O | inconclusive: 22.4 µM [inhibitor, single point] |
| CN(C)CCNc1ccc(CO)c2sc3ccc(O)cc3c(=O)c12 | inactive |
| Cn1nnnc1Sc1ncnc2scc(-c3cccc(F)c3)c12 | inconclusive: 11.2 µM [inhibitor, single point] |
| CCCCn1c(SCC(=O)Nc2cc(NC(=O)c3ccco3)ccc2C)nc2ccccc2c1=O | inconclusive: 28.2 µM [inhibitor, single point] |
| COc1ccc(C(C)=O)cc1COC(=O)c1cnc(Cl)c(Cl)c1 | inconclusive: 35.5 µM [inhibitor, single point] |
| Cc1ccc(N=Cc2sc(O)c3ccccc23)c(C)c1 | inconclusive: 22.4 µM [inhibitor, single point] |
| CN(c1ccccc1)c1nc(N)c([N+](=O)[O-])c(NCc2ccco2)n1 | inconclusive: 28.2 µM [inhibitor, single point] |
| O=C(C[n+]1cc(Br)cc2ccccc21)c1ccc(Br)cc1 | inconclusive: 31.6 µM [inhibitor, single point] |
| CCCN1CCC(=O)N(C(CSc2ccc(Br)cc2)CC(C)C)CC1 (configuration not stated) | inconclusive: 7.08 µM [inhibitor, partial curve, poor fit] |
| Cc1ccc(CNC(=O)CN2C(=O)COc3ccc(S(=O)(=O)Nc4ccccc4)cc32)cc1 | inactive |
| CC(=O)c1cc(O)c2ccccc2c1O | inconclusive: 22.4 µM [inhibitor, partial curve, poor fit] |
| NCCN1C(=O)c2ccccc2C1(O)c1ccc(Cl)cc1 (configuration not stated) | inactive |
| CC(C)Cn1c(O)c(/C=C2\C=NN=C2c2ccccc2)sc1=S | inactive |
| O=C1CN(C(=O)CSc2nc3c(cnn3-c3ccccc3)c(=O)[nH]2)c2ccccc2N1 | inconclusive: 35.5 µM [inhibitor, single point] |
